{
  "source": "a collection of fitness landscapes (doi:10.1126/science.1257360)",
  "parents": {"B1": {"name": "PhoQ; a variant is named by its letters at X, in order, P23837 (parent)", "chain": "MKKLLRLFFPLSLRVRFLLATAAVVLVLSLAYGMVALIGYSVSFDKTTFRLLRGESNLFYTLAKWENNKLHVELPENIDKQSPTMTLIYDENGQLLWAQRDVPWLMKMIQPDWLKSNGFHEIEADVNDTSLLLSGDHSIQQQLQEVREDDDDAEMTHSVAVNVYPATSRMPKLTIVVVDTIPVELKSSYMVWSWFIYVLSANLLLVIPLLWVAAWWSLRPIEALAKEVRELEEHNRELLNPATTRELTSLVRNLNRLLKSERERYDKYRTTLTDLTHSLKTPLXXLQXXLRSLRSEKMSVSDAEPVMLEQISRISQQIGYYLHRASMRGGTLLSRELHPVAPLLDNLTSALNKVYQRKGVNISLDISPEISFVGEQNDFVEVMGNVLDNACKYCLEFVEISARQTDEHLYIVVEDDGPGIPLSKREVIFDRGQRVDTLRPGQGVGLAVAREITEQYEGKIVAGESMLGGARMEVIFGRQHSAPKDE"}},
  "note": "This is one part of the list.",
  "data": [
    {"variants_of": "B1", "assay": "enrichment ratio after two sorts for PhoP signalling (ratio (wild type AVST 3.29)); higher = more functional", "conditions": "with PhoP (E. coli)", "values": [
      {"variant": "VEKF", "enrichment ratio": "≤ 0.25"},
      {"variant": "LPTP", "enrichment ratio": "≤ 0.25"},
      {"variant": "HPVK", "enrichment ratio": "≤ 0.25"},
      {"variant": "QIIP", "enrichment ratio": "≤ 0.25"},
      {"variant": "MSLI", "enrichment ratio": 10.4},
      {"variant": "HFKA", "enrichment ratio": "≤ 0.25"},
      {"variant": "YIRA", "enrichment ratio": "≤ 0.25"},
      {"variant": "IKWN", "enrichment ratio": "≤ 0.25"},
      {"variant": "VDCN", "enrichment ratio": "≤ 0.25"},
      {"variant": "YCWD", "enrichment ratio": "≤ 0.25"},
      {"variant": "TVRV", "enrichment ratio": "≤ 0.25"},
      {"variant": "QDSN", "enrichment ratio": "≤ 0.25"},
      {"variant": "NDFK", "enrichment ratio": "≤ 0.25"},
      {"variant": "IYIQ", "enrichment ratio": "≤ 0.25"},
      {"variant": "INDG", "enrichment ratio": "≤ 0.25"},
      {"variant": "QSKY", "enrichment ratio": "≤ 0.25"},
      {"variant": "MFID", "enrichment ratio": "≤ 0.25"},
      {"variant": "HMDT", "enrichment ratio": "≤ 0.25"},
      {"variant": "LTRS", "enrichment ratio": "≤ 0.25"},
      {"variant": "NSQC", "enrichment ratio": "≤ 0.25"},
      {"variant": "CLPP", "enrichment ratio": "≤ 0.25"},
      {"variant": "GEMI", "enrichment ratio": 84},
      {"variant": "RNEV", "enrichment ratio": "≤ 0.25"},
      {"variant": "FGMD", "enrichment ratio": "≤ 0.25"},
      {"variant": "LGPS", "enrichment ratio": "≤ 0.25"},
      {"variant": "QESK", "enrichment ratio": "≤ 0.25"},
      {"variant": "FVEF", "enrichment ratio": "≤ 0.25"},
      {"variant": "LMGY", "enrichment ratio": "≤ 0.25"},
      {"variant": "GYGS", "enrichment ratio": "≤ 0.25"},
      {"variant": "DHYS", "enrichment ratio": "≤ 0.25"},
      {"variant": "WHEW", "enrichment ratio": "≤ 0.25"},
      {"variant": "GGPG", "enrichment ratio": "≤ 0.25"},
      {"variant": "ACKS", "enrichment ratio": "≤ 0.25"},
      {"variant": "PWAI", "enrichment ratio": "≤ 0.25"},
      {"variant": "YLKV", "enrichment ratio": "≤ 0.25"},
      {"variant": "YFLA", "enrichment ratio": "≤ 0.25"},
      {"variant": "VNVM", "enrichment ratio": 5.74},
      {"variant": "QMSG", "enrichment ratio": 6.53},
      {"variant": "AFLR", "enrichment ratio": 2.59},
      {"variant": "MEWE", "enrichment ratio": "≤ 0.25"},
      {"variant": "YTQR", "enrichment ratio": "≤ 0.25"},
      {"variant": "LYRF", "enrichment ratio": "≤ 0.25"},
      {"variant": "ILEH", "enrichment ratio": "≤ 0.25"},
      {"variant": "DQHF", "enrichment ratio": "≤ 0.25"},
      {"variant": "LRFR", "enrichment ratio": "≤ 0.25"},
      {"variant": "PCDC", "enrichment ratio": "≤ 0.25"},
      {"variant": "STAH", "enrichment ratio": 8.44},
      {"variant": "WQEP", "enrichment ratio": "≤ 0.25"},
      {"variant": "DMRD", "enrichment ratio": "≤ 0.25"},
      {"variant": "RDVV", "enrichment ratio": "≤ 0.25"},
      {"variant": "HRVY", "enrichment ratio": "≤ 0.25"},
      {"variant": "KACC", "enrichment ratio": "≤ 0.25"},
      {"variant": "EMNR", "enrichment ratio": "≤ 0.25"},
      {"variant": "SQRD", "enrichment ratio": "≤ 0.25"},
      {"variant": "MSGC", "enrichment ratio": 7},
      {"variant": "VGWR", "enrichment ratio": "≤ 0.25"},
      {"variant": "YFWC", "enrichment ratio": "≤ 0.25"},
      {"variant": "PQFE", "enrichment ratio": "≤ 0.25"},
      {"variant": "YMHY", "enrichment ratio": "≤ 0.25"},
      {"variant": "MGKG", "enrichment ratio": "≤ 0.25"},
      {"variant": "DTSK", "enrichment ratio": "≤ 0.25"},
      {"variant": "SWVA", "enrichment ratio": 1.07},
      {"variant": "NMWD", "enrichment ratio": "≤ 0.25"},
      {"variant": "VYRH", "enrichment ratio": "≤ 0.25"},
      {"variant": "NWWC", "enrichment ratio": "≤ 0.25"},
      {"variant": "MIRL", "enrichment ratio": "≤ 0.25"},
      {"variant": "TPYQ", "enrichment ratio": 0.956},
      {"variant": "TAAY", "enrichment ratio": 15.7},
      {"variant": "HIQR", "enrichment ratio": "≤ 0.25"},
      {"variant": "SADW", "enrichment ratio": "≤ 0.25"},
      {"variant": "IHGA", "enrichment ratio": "≤ 0.25"},
      {"variant": "VMRC", "enrichment ratio": "≤ 0.25"},
      {"variant": "NGCY", "enrichment ratio": "≤ 0.25"},
      {"variant": "QMMF", "enrichment ratio": "≤ 0.25"},
      {"variant": "ADSM", "enrichment ratio": "≤ 0.25"},
      {"variant": "VSAK", "enrichment ratio": "≤ 0.25"},
      {"variant": "SMTQ", "enrichment ratio": 8.61},
      {"variant": "RTNM", "enrichment ratio": "≤ 0.25"},
      {"variant": "QCNV", "enrichment ratio": "≤ 0.25"},
      {"variant": "QNNL", "enrichment ratio": "≤ 0.25"},
      {"variant": "EIHR", "enrichment ratio": "≤ 0.25"},
      {"variant": "CSPL", "enrichment ratio": "≤ 0.25"},
      {"variant": "KQSF", "enrichment ratio": "≤ 0.25"},
      {"variant": "DHWY", "enrichment ratio": "≤ 0.25"},
      {"variant": "VYCK", "enrichment ratio": "≤ 0.25"},
      {"variant": "DDAG", "enrichment ratio": "≤ 0.25"},
      {"variant": "ELWL", "enrichment ratio": "≤ 0.25"},
      {"variant": "SDSW", "enrichment ratio": "≤ 0.25"},
      {"variant": "GNMH", "enrichment ratio": 1.54},
      {"variant": "WYTQ", "enrichment ratio": "≤ 0.25"},
      {"variant": "LMIP", "enrichment ratio": "≤ 0.25"},
      {"variant": "KPAA", "enrichment ratio": "≤ 0.25"},
      {"variant": "PGPR", "enrichment ratio": "≤ 0.25"},
      {"variant": "YTNC", "enrichment ratio": "≤ 0.25"},
      {"variant": "TSFT", "enrichment ratio": 1.52},
      {"variant": "SQMN", "enrichment ratio": 25.3},
      {"variant": "FWNT", "enrichment ratio": "≤ 0.25"}
    ]}
  ]
}
